# Several values for one entry are separate records, joined by “and”; a condition that tells them apart may be missing. Equal values may be shown once. This list was built around the results that the source calls inconclusive (neither active nor inactive); the mix of calls is not that of the screen. For some of these results: Where the call is inconclusive, the potency comes from a doubtful curve fit. Activity calls are given as the source filed them. Unless noted, calls follow the shape of the dose curve; as a rule, active = well fitted curve in the direction sought with a large enough effect; inconclusive = small, poorly fitted or top-dose-only effect, or another doubt; inactive = no such curve, though single readings can be large; an effect the other way counts as inactive or inconclusive. Where a SMILES comes first, the peptide text is derived from it. [ ]: non-standard residue; d: D form. The star is where a group is joined. Sta = CC(C)C[C@H](N)[C@@H](O)CC(=O)O; Isovaleryl = CC(C)CC(=O)*
# Key:
# [1] = target: Cytochrome P450 2C9 (Homo sapiens) (UniProt P11712); assay: Cytochrome P450 family 2 subfamily C member 9 (CYP2C9) small molecule antagonists: luciferase biochemical (cell-free) qHTS assay (AID 1645842; active = well fitted curve in the direction sought with a large enough effect in the repeat runs; inconclusive = weak or mixed curves; inactive = no such curve, though single readings can be large; an effect the other way counts as inactive or inconclusive; also: nearly all actives have a fitted effect of over 55% in size; also: potency is read from the fitted curve at half-maximal effect)
# Method in brief: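 P450-Glo CYP2C9 system: proluciferin substrate with enzyme in mix containing 0.4% BSA, 10 min at room temperature, then NADPH regeneration solution added and incubated 1 h at 37C. Detection reagent stopped reaction; luminescence read after 20 min as RLU.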
# [2] = Primary qHTS for inhibitors of nuclear receptor binding SET domain protein 2 (NSD2) in an isogenic RCH-ACV NSD2 p.E1099K mutant (9B) (AID 1645876); also: nearly all actives have a fitted effect of over 70% in size; also: potency is read from the fitted curve at half-maximal effect
# [3] = Primary qHTS for inhibitors of nuclear receptor binding SET domain protein 2 (NSD2) in an RCH-ACV wild type WT cells (2C) (AID 1645877); also: nearly all actives have a fitted effect of over 70% in size; also: potency is read from the fitted curve at half-maximal effect
# [4] = target: Rap guanine nucleotide exchange factor 3 (Homo sapiens) (UniProt O95398); assay: Confirmatory qHTS for antagonist of cAMP-regulated guanine nucleotide exchange factor 3 (EPAC1) (AID 1645880); conditions: EPAC1 Rap1B-BODIPY-GDP exchange, fluorescence; also: potency is read from the fitted curve at half-maximal effect; nearly all actives have a fitted effect of over 55% in size
# Method in brief: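 Released BODIPY-GDP fluoresces less than Rap1-bound BODIPY-GDP; the signal is followed at 480/540 nm at 5-min intervals over 30 min, after 5 min at room temperature. Reactions contain 100 nM EPAC1, 250 nM RAP1B-BODIPY-GDP and 50 uM GDP; results are normalized to ATA and DMSO.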
# [5] = target: Rap guanine nucleotide exchange factor 3 (Homo sapiens) (UniProt O95398); assay: Counterscreen qHTS for agonist of cAMP-regulated guanine nucleotide exchange factor 3 (EPAC1) (AID 1645889); also: nearly all actives have a fitted effect of over 40% in size
# Method in brief: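 Rap1B-BODIPY-GDP 250 nM + GDP 50 uM; cpds 7-pt, final 9.74 nM–152 uM (activator mode) or from 7.32 nM upwards (inhibitor mode); RT; FI 480/540 nm at 5 and 30 min, then ± cAMP, reread.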
# [6] = target: N-terminal Xaa-Pro-Lys N-methyltransferase 1 (Homo sapiens) (UniProt Q9BV86); assay: Confirmatory qHTS for Inhibitors of N-terminal methyltransferase 1 (NTMT1): MTaseGlo Assay (AID 1645874); also: potency is read from the fitted curve at half-maximal effect; nearly all actives have a fitted effect of over 65% in size
# Method in brief: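 MTase-Glo luminescence measured SAH formed by 125 nM NTMT1 from 100 uM SAM and 1 uM SPKRIA peptide over 30 min at room temperature, following 15 min compound preincubation. Percent inhibition against no-enzyme and DMSO controls gave 4-parameter Hill fits.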
# Tags tell the direction and shape of the fitted curve.
# Chain of UniProt P11712 (P11712 whole entry, looked up): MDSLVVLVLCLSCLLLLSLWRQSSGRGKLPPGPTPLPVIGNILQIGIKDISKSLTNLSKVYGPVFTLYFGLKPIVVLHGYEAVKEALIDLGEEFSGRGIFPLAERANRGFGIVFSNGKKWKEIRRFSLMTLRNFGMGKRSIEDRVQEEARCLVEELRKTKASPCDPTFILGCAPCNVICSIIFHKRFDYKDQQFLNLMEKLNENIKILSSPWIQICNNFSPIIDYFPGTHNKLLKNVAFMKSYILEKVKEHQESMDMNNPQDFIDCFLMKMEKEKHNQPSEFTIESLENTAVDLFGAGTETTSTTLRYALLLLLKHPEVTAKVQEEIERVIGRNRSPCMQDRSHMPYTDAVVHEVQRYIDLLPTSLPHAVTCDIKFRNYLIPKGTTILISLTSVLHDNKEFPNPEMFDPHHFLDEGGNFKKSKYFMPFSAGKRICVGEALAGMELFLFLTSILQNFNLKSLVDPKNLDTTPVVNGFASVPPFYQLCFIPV
# Chain of UniProt O95398 (O95398 whole entry, looked up): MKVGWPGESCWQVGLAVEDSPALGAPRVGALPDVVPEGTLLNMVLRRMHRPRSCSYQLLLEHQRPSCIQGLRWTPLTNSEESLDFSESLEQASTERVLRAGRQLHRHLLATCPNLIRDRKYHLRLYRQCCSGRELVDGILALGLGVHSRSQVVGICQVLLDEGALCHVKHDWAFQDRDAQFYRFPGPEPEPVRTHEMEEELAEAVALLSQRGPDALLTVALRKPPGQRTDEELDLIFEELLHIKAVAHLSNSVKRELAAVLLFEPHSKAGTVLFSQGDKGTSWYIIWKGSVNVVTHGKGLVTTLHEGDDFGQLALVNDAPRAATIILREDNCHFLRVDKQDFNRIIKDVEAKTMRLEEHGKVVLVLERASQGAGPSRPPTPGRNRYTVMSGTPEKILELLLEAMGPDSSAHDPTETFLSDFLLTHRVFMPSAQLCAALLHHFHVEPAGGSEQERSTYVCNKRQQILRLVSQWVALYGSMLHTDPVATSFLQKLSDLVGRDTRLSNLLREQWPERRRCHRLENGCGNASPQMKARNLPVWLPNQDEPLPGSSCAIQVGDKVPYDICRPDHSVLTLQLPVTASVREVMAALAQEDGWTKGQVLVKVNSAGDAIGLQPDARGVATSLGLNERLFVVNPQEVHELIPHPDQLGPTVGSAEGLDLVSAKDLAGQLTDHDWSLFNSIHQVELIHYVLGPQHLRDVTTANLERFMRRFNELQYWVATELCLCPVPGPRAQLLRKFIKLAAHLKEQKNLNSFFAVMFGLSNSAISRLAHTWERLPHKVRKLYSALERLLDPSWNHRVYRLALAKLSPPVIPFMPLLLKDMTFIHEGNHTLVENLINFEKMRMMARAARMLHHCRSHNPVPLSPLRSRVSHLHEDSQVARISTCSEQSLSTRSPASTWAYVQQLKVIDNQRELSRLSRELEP
# Chain of UniProt Q9BV86 (Q9BV86 whole entry, looked up): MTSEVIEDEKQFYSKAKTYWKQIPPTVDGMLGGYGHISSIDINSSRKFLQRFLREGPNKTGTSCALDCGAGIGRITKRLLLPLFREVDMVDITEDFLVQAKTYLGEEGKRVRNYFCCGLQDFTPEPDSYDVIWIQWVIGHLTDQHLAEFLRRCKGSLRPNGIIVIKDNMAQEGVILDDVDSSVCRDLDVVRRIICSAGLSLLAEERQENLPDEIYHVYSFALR
compound,measurement,setting,value
CC1CCN(c2cc(N3CCN(C)CC3)ccc2NC(=O)c2cc(C#N)c[nH]2)CC1,Potency,[1],"inconclusive: 37.9 µM [inhibitor, single point]"
same,Potency,[2],"inconclusive: 25.9 µM [inhibitor, single point]"
same,Potency,[3],"inconclusive: 25.9 µM [inhibitor, single point]"
COc1cc2ncnc(-n3nc(-c4ccccn4)nc3N)c2cc1OC,Potency,[1],"inconclusive: 8.49 µM [inhibitor, partial curve, poor fit]"
same,Potency,[2],"inconclusive: 2.09 µM [inhibitor, full curve]"
same,Potency,[3],"inconclusive: 3.32 µM [inhibitor, full curve]"
Cc1ccn(-c2ccc(-c3ncco3)cc2)c(=O)c1-c1ccc2nc(N)ncc2c1,Potency,[1],"inconclusive: 12 µM [inhibitor, partial curve]"
same,Potency,[3],"inconclusive: 4.68 µM [inhibitor, full curve]"
NC(=O)OCC(COC(N)=O)c1ccccc1,Potency,[1],inactive
C[C@@]1(C(=O)Nc2ccc(F)nc2)CCCN1c1nc(Nc2cc(C3CC3)[nH]n2)c2cccn2n1,Potency,[2],active: 2.95 µM
N#CNC(=NCCCCCCOc1ccc(Cl)cc1)Nc1ccncc1,Potency,[2],active: 0.0047 µM
COc1cc(C)c(C=CC(C)=CC=CC(C)=CC(=O)O)c(C)c1C,Potency,[1],active: 23.9 µM
NC(=O)c1nnn(Cc2cc(Cl)c(C(=O)c3ccc(Cl)cc3)c(Cl)c2)c1N,Potency,[1],"inconclusive: 37.9 µM [inhibitor, single point]"
same,Potency,[4],"inconclusive: 39.8 µM [inhibitor, partial curve]"
same,Potency,[5],inactive
CCCc1cc(=O)[nH]c(=S)[nH]1,Potency,[1],inactive
same,Potency,[2],inactive
same,Potency,[3],inactive
Nc1ncnc2nc(-c3ccc(N4CCOCC4)nc3)cc(-c3cccc(Br)c3)c12,Potency,[6],active: 0.515 µM
same,Potency,[2],"inconclusive: 29.1 µM [inhibitor, single point] and inconclusive: 20.9 µM [inhibitor, partial curve]"
same,Potency,[3],"inconclusive: 29.1 µM [inhibitor, single point]"
Nc1ccn([C@@H]2O[C@H](CO)[C@@H](O)[C@H]2O)c(=O)n1,Potency,[2],"inconclusive: 37.2 µM [inhibitor, partial curve, poor fit]"
CCCCCCCCCC(=O)N[C@@H](Cc1c[nH]c2ccccc12)C(=O)N[C@H](CC(N)=O)C(=O)N[C@@H](CC(=O)O)C(=O)N[C@@H]1C(=O)NCC(=O)N[C@@H](CCCN)C(=O)N[C@@H](CC(=O)O)C(=O)N[C@H](C)C(=O)N[C@@H](CC(=O)O)C(=O)NCC(=O)N[C@H](CO)C(=O)N[C@@H]([C@@H](C)CC(=O)O)C(=O)N[C@@H](CC(=O)c2ccccc2N)C(=O)O[C@@H]1C,Potency,[2],inactive
COc1cc(C(=O)NC2CCN(C)CC2)ccc1Nc1ncc2c(n1)N(C1CCCC1)CCC(=O)N2C(C)C,Potency,[2],active: 13.2 µM
NCCS(=O)(=O)O,Potency,[2],inactive
CC(C)CC(=O)N[C@H](C(=O)N[C@H](C(=O)N[C@@H](CC(C)C)[C@@H](O)CC(=O)N[C@@H](C)C(=O)N[C@@H](CC(C)C)[C@@H](O)CC(=O)O)C(C)C)C(C)C (Isovaleryl-VV[Sta]A[Sta]-OH),Potency,[1],inactive
same,Potency,[2],inactive
same,Potency,[3],inactive
Cc1cccc(-c2nn(C(=S)Nc3ccccc3)cc2-c2ccnc3ccccc23)n1,Potency,[2],"inconclusive: 14.8 µM [inhibitor, partial curve]"
same,Potency,[3],"inconclusive: 32.6 µM [inhibitor, partial curve, poor fit]"
OC(CN1CCN(c2cccc(Cl)c2)CC1)C(c1ccccc1)c1ccccc1 (stereo not given),Potency,[2],"inconclusive: 16.3 µM [inhibitor, single point]"
same,Potency,[3],"inconclusive: 29 µM [inhibitor, single point]"
O=C(O)c1ccc(-c2c[nH]c3ncc(-c4ccccc4)cc23)cc1C1CCCC1,Potency,[2],"inconclusive: 5.8 µM [inhibitor, full curve]"
same,Potency,[3],"inconclusive: 3.66 µM [inhibitor, full curve]"
CCCOc1ccc2nc(NC(=O)OC)[nH]c2c1,Potency,[2],"inconclusive: 0.0596 µM [inhibitor, full curve, poor fit]"
same,Potency,[3],"inconclusive: 33.5 µM [inhibitor, partial curve, poor fit]"
N[C@H]1CN(c2c(F)cc3c(=O)c(C(=O)O)cn(C4C[C@@H]4F)c3c2Cl)CC12CC2 (stereo not given in full),Potency,[2],"inconclusive: 23.7 µM [inhibitor, single point]"
same,Potency,[3],"inconclusive: 33.5 µM [inhibitor, single point]"
CC(C)C[C@H](CC(=O)O)C(=O)N[C@@H](Cc1c[nH]c2ccccc12)C(=O)N[C@@H](C)c1ccccc1,Potency,[2],"inconclusive: 37.2 µM [inhibitor, partial curve, poor fit]"
same,Potency,[3],"inconclusive: 26.3 µM [inhibitor, single point]"
